We go through one protein from publication doi:10.1101/2021.11.17.468963 (bioRxiv, 2021).

The series concerns the molecule itself. In words: cryo-EM structure.

B1: β-galactosidase from Escherichia coli (enzyme)
chain: not shown
Consider B1, for which the binding result is listed as “binds”.
